Source: US20220411483A1 (Chugai, published 2022)
Where a chain is given by its changes, count along the chain named.

T1: human FcγRIIa H type extracellular domain with C-terminal His tag (human, UniProt P12318 34-217)
T1 construct: extracellular domain; also called FcgRIIaH
T1 sequence (looked up): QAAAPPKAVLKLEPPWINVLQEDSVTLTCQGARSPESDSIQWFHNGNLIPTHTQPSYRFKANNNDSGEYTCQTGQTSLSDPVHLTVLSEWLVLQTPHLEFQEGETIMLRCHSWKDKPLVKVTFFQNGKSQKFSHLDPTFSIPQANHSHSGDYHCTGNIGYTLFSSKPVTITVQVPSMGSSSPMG

T2: human FcγRIIa R type extracellular domain with C-terminal His tag (human, UniProt P12318 34-217)
T2 construct: extracellular domain; also called FcgRIIaR
T2 sequence (looked up): T1 sequence (looked up) with H134R

T3: human FcγRIIb extracellular domain with C-terminal His tag (human, UniProt P31994 43-217)
T3 construct: extracellular domain; also called FcgRIIb
T3 sequence (looked up): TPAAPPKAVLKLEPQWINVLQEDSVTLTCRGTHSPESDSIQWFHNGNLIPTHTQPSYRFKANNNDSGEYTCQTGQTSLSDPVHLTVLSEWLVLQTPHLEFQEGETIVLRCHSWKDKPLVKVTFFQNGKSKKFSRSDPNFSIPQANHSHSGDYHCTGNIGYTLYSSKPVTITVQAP

T4: FcgRIIb (human, UniProt P31994 43-217)
T4 construct: extracellular domain; also called FcγRIIb
T4 sequence (looked up): T3 sequence (looked up)

T5: FcgRIIaR (human, UniProt P12318 34-217)
T5 construct: extracellular domain; also called FcγRIIa R type; FcγRIIa (R type)
T5 sequence (looked up): T1 sequence (looked up) with H134R

B1: IL6R-G1dK322A/IL6R-L (antibody, human IgG1, kappa)
heavy: QVQLQESGPGLVKPSETLSLTCAVSGHSISHDHAWSWVRQPPGEGLEWIGFISYSGITNYNPSLQGRVTISRDNSKNTLYLQMNSLRAEDTAVYYCARSLARTTAMDYWGEGTLVTVSS[human IgG1 constant region with K322A (EU numbers) not shown]
light: DIQMTQSPSSLSASVGDRVTITCRASQDISSYLNWYQQKPGKAPKLLIYYTSRLHSGVPSRFSGSGSGTDFTFTISSLQPEDIATYYCQQGNTLPYTFGQGTKVEIKRTVAAPSVFIFPPSDEQLKSGTASVVCLLNNFYPREAKVQWKVDNALQSGNSQESVTEQDSKDSTYSLSSTLTLSKADYEKHKVYACEVTHQGLSSPVTKSFNRGEC
B2: IL6R-P112/IL6R-L (antibody, human IgG1, kappa)
heavy: QVQLQESGPGLVKPSETLSLTCAVSGHSISHDHAWSWVRQPPGEGLEWIGFISYSGITNYNPSLQGRVTISRDNSKNTLYLQMNSLRAEDTAVYYCARSLARTTAMDYWGEGTLVTVSS[human IgG1 constant region with P238D P271G (EU numbers) not shown]
light: B1 light
B3: IL6R-P600/IL6R-L (antibody, human IgG1, kappa)
heavy: QVQLQESGPGLVKPSETLSLTCAVSGHSISHDHAWSWVRQPPGEGLEWIGFISYSGITNYNPSLQGRVTISRDNSKNTLYLQMNSLRAEDTAVYYCARSLARTTAMDYWGEGTLVTVSS[human IgG1 constant region with P238D S298A (EU numbers) not shown]
light: B1 light
B4: IL6R-G1dK322E/IL6R-L (antibody, human IgG1, kappa)
heavy: QVQLQESGPGLVKPSETLSLTCAVSGHSISHDHAWSWVRQPPGEGLEWIGFISYSGITNYNPSLQGRVTISRDNSKNTLYLQMNSLRAEDTAVYYCARSLARTTAMDYWGEGTLVTVSS[human IgG1 constant region with K322E (EU numbers) not shown]
light: B1 light
B5: IL6R-P742/IL6R-L (antibody, human IgG1, kappa)
heavy: QVQLQESGPGLVKPSETLSLTCAVSGHSISHDHAWSWVRQPPGEGLEWIGFISYSGITNYNPSLQGRVTISRDNSKNTLYLQMNSLRAEDTAVYYCARSLARTTAMDYWGEGTLVTVSS[human IgG1 constant region with P238D K322E (EU numbers) not shown]
light: B1 light
B6: IL6R-G1dK322A/IL6R-L (antibody, human IgG1, kappa)
heavy: B1 heavy
light: B1 light
B7: IL6R-G1dK322E/IL6R-L (antibody, human IgG1, kappa)
heavy: B4 heavy
light: B1 light
B8: IL6R-P600/IL6R-L (antibody, human IgG1, kappa)
heavy: B3 heavy
light: B1 light
B9: IL6R-P112/IL6R-L (antibody, human IgG1, kappa)
heavy: B2 heavy
light: B1 light
B10: IL6R-P741/IL6R-L (antibody, human IgG1, kappa)
heavy: QVQLQESGPGLVKPSETLSLTCAVSGHSISHDHAWSWVRQPPGEGLEWIGFISYSGITNYNPSLQGRVTISRDNSKNTLYLQMNSLRAEDTAVYYCARSLARTTAMDYWGEGTLVTVSS[human IgG1 constant region with P238D K322A (EU numbers) not shown]
light: B1 light

These binders were tested against T6, human FcγRIa extracellular domain with C-terminal His tag (human, UniProt P12314 16-292) (assay: SPR, KD of IL6R-G1d/IL6R-L divided by KD of variant).
T6 construct: Whole entry named; also called FcgRIa
T6 sequence (P12314 16-292): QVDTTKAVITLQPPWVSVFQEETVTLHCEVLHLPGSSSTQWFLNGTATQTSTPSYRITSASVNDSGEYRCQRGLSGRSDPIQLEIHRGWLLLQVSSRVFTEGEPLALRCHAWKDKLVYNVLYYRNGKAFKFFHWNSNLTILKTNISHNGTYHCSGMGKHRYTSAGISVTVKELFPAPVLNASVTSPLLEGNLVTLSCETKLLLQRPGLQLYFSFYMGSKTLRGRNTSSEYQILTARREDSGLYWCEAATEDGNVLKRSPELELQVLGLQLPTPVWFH

Q: For B1, which “Relative FcgRIa-binding Activity” value is on record?
A: 1.28

Q: How did the “Relative FcgRIa-binding Activity” value turn out when B2 was run?
A: 0.091

Q: How did the “Relative FcgRIa-binding Activity” value turn out when B3 was run?
A: 0.089

Q: With B4 as the binder, how does the “Relative FcgRIa-binding Activity” value read?
A: 1.78

Q: B5 was tested. Which “Relative FcgRIa-binding Activity” value did it give?
A: 0.039

Each binder was assayed against T1, human FcγRIIa H type extracellular … in the same assay as above.

Q: B1 was tested. Which “Relative FcgRIIaH-binding Activity” value did it give?
A: 0.689

Q: Which “Relative FcgRIIaH-binding Activity” value does the source give for B2 here?
A: 0.018

Q: B3 was tested. Which “Relative FcgRIIaH-binding Activity” value did it give?
A: 0.012

Q: Which “Relative FcgRIIaH-binding Activity” value does the source give for B4 here?
A: 0.912

Q: With B5 as the binder, how does the “Relative FcgRIIaH-binding Activity” value read?
A: 0.017

The binders below were run against T2, human FcγRIIa R type extracellular … in the same assay as above.

Q: For B1, which “Relative FcgRIIaR-binding Activity” value is on record?
A: 1.16

Q: Which “Relative FcgRIIaR-binding Activity” value does the source give for B2 here?
A: 0.32

Q: B3 was tested. Which “Relative FcgRIIaR-binding Activity” value did it give?
A: 0.03

Q: B4 was tested. Which “Relative FcgRIIaR-binding Activity” value did it give?
A: 1.36

Q: B5 was tested. Which “Relative FcgRIIaR-binding Activity” value did it give?
A: 0.07

Each binder was assayed against T3, human FcγRIIb extracellular domain with … in the same assay as above.

Q: Which “Relative FcgRIIb-binding Activity” value does the source give for B1 here?
A: 1

Q: With B2 as the binder, how does the “Relative FcgRIIb-binding Activity” value read?
A: 7.5

Q: Which “Relative FcgRIIb-binding Activity” value does the source give for B3 here?
A: 0.7

Q: How did the “Relative FcgRIIb-binding Activity” value turn out when B4 was run?
A: 1.1

Each binder was assayed against T7, human FcγRIIIa V type extracellular domain with C-terminal His tag (human, UniProt P08637 partial chain) in the same assay as above.
T7 construct: extracellular domain; also called FcgRIIIaV
T7 sequence (P08637 17-208 F176V): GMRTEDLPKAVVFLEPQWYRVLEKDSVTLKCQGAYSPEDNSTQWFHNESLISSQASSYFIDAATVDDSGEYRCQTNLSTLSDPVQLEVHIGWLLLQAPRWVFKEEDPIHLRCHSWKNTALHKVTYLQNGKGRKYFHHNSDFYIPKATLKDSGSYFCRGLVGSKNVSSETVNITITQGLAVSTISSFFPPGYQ

Q: With B1 as the binder, how does the “Relative FcgRIIIaV-binding Activity” value read?
A: 0.74

Q: For B2, which “Relative FcgRIIIaV-binding Activity” value is on record?
A: 0.005

Q: How did the “Relative FcgRIIIaV-binding Activity” value turn out when B3 was run?
A: 0.006

Q: With B4 as the binder, how does the “Relative FcgRIIIaV-binding Activity” value read?
A: 0.787

Q: For B5, which “Relative FcgRIIIaV-binding Activity” value is on record?
A: 0.007

These binders were tested against T4, FcgRIIb (assay: SPR, amount bound per captured antibody).

Q: How did the “Relative FcgRIIb-binding Activity” value turn out when B6 was run?
A: 109 IL6R-G1d/IL6R-L=100

Q: How did the “Relative FcgRIIb-binding Activity” value turn out when B7 was run?
A: 129 IL6R-G1d/IL6R-L=100

Q: For B8, which “Relative FcgRIIb-binding Activity” value is on record?
A: 102 IL6R-G1d/IL6R-L=100

Q: With B9 as the binder, how does the “Relative FcgRIIb-binding Activity” value read?
A: 287 IL6R-G1d/IL6R-L=100

These binders were tested against T5, FcgRIIaR (assay: SPR, amount bound per captured antibody).

Q: How did the “Relative FcgRIIaR-binding Activity” value turn out when B6 was run?
A: 105 IL6R-G1d/IL6R-L=100

Q: How did the “Relative FcgRIIaR-binding Activity” value turn out when B7 was run?
A: 112 IL6R-G1d/IL6R-L=100

Q: With B8 as the binder, how does the “Relative FcgRIIaR-binding Activity” value read?
A: 15.6 IL6R-G1d/IL6R-L=100

Q: Which “Relative FcgRIIaR-binding Activity” value does the source give for B9 here?
A: 75.7 IL6R-G1d/IL6R-L=100

Each binder was assayed against T6, human FcγRIa extracellular domain with … (assay: SPR, antibody captured, FcgR analyte).

Q: For B1, which Kd is on record?
A: 0.25 nM

Q: Which Kd does the source give for B2 here?
A: 3.5 nM

Q: With B3 as the binder, how does the Kd read?
A: 3.6 nM

Q: Which Kd does the source give for B4 here?
A: 0.18 nM

Q: With B5 as the binder, how does the Kd read?
A: 8.2 nM

What follows are binders tested against T1, human FcγRIIa H type extracellular … (assay: SPR, antibody captured, FcgR analyte).

Q: For B1, which Kd is on record?
A: 900 nM

Q: B4 was tested. Which Kd did it give?
A: 680 nM

Each binder was assayed against T2, human FcγRIIa R type extracellular … (assay: SPR, antibody captured, FcgR analyte).

Q: Which Kd does the source give for B1 here?
A: 0.95 µM

Q: With B2 as the binder, how does the Kd read?
A: 3.4 µM

Q: With B3 as the binder, how does the Kd read?
A: 39 µM

Q: B4 was tested. Which Kd did it give?
A: 0.81 µM

Q: How did the Kd turn out when B10 was run?
A: 20 µM

Q: For B5, which Kd is on record?
A: 16 µM

The binders below were run against T3, human FcγRIIb extracellular domain with … (assay: SPR, antibody captured, FcgR analyte).

Q: B1 was tested. Which Kd did it give?
A: 2100 nM

Q: How did the Kd turn out when B2 was run?
A: 280 nM

Q: With B3 as the binder, how does the Kd read?
A: 3200 nM

Q: With B4 as the binder, how does the Kd read?
A: 2000 nM

Q: For B10, which Kd is on record?
A: 1500 nM

The binders below were run against T7, human FcγRIIIa V type extracellular … (assay: SPR, antibody captured, FcgR analyte).

Q: With B1 as the binder, how does the Kd read?
A: 500 nM

Q: For B4, which Kd is on record?
A: 470 nM

Each binder was assayed against T8, human complement C1q (human, UniProt P02745; P02746; P02747) (assay: SPR, C1q bound per antibody captured on Protein L).
T8 construct: Bought (PROSPEC or Calbiochem); also called human C1q
Procedure: The interaction between an antibody and human C1q was analyzed using Biacore T200 (GE Healthcare). HBS-EP+ (GE Healthcare) was used as the running buffer, and the measurement temperature was set at 25° C. Chips produced by immobilizing Protein L (ACTIGEN or BioVision) onto Series S sensor Chip CM4 (GE Healthcare) by amine coupling were used.
The antibodies of interest were captured onto these sensor chips, and allowed to interact with human complement C1q (PROSPEC or Calbiochem) diluted in the running buffer. The amount of antibody binding was determined, and comparisons were made among the antibodies. However, since the amount of C1q bound depends on the amount of captured antibodies, corrected values obtained by dividing the amount of C1q bound by the amount of each antibody captured were compared. Furthermore, by reaction with 10 mM glycine-HCl, pH 1.5, the antibodies captured onto the sensor chips were washed, and the sensor chips were recycled and reused.

T8 sequence (P02745 23-245 limits assumed, chain 1 of 3): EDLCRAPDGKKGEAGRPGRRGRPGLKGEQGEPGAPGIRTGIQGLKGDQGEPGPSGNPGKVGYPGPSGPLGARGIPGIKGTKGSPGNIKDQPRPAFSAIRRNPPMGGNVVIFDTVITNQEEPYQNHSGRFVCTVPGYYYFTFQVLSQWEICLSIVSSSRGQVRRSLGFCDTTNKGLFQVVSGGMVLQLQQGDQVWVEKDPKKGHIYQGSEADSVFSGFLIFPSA
T8 sequence (P02746 28-253 limits assumed, chain 2 of 3, further chain): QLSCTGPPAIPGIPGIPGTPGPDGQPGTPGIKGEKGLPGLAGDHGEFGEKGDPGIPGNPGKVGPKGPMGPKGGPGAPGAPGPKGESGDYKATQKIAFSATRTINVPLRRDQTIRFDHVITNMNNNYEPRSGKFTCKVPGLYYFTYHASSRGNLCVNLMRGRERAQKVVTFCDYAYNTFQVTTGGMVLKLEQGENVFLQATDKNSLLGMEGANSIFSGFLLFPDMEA
T8 sequence (P02747 29-245 limits assumed, chain 3 of 3, further chain): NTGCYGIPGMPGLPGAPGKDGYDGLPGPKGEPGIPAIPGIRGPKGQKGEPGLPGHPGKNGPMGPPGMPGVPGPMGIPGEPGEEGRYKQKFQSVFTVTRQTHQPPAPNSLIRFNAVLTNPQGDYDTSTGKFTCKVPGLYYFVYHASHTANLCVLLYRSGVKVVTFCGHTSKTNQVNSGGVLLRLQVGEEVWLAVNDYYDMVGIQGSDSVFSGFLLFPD

Q: Which “Amount of C1q-binding when that for G1d is Defined as 100” value (“Amount of C1q-binding when that” below) does the source give for B6 here?
A: 20.5 G1d=100

Q: Which “Amount of C1q-binding when that” value does the source give for B7 here?
A: 2.3 G1d=100

Q: For B8, which “Amount of C1q-binding when that” value is on record?
A: 2.4 G1d=100

Q: B9 was tested. Which “Amount of C1q-binding when that” value did it give?
A: 24.2 G1d=100
